Screen size: about 130,000 compounds; about 1,200 (0.92%) were called active. The shares of active, inactive and inconclusive entries below differ from those in the screen. Calls come from the whole dose curve; as a rule, active = well fitted cell-killing curve with a large enough effect; inconclusive = small, poorly fitted or top-dose-only effect; inactive = no such curve, though single readings can be large or run the other way. Where the call is inconclusive, the potency comes from a doubtful curve fit. A structure can be active in one record and inactive in another.
assay: qHTS Screen for Compounds that Selectively Target Cancer Cells with p53 Mutations: Cytotoxicity of p53ts Cells at the Permissive Temperature; conditions: H1299-p53A138V at 32C, ATP luminescence viability, 24 h; activity change, negative = cytotoxicity: at 46.1 µM (top of the series); note: nearly all actives have a fitted effect of over 55% in size;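 for activity change, negative = cytotoxicity: 0% = DMSO and -100% = full killing by reference compound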
Outline: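 H1299-p53 A138V cells (temperature-sensitive p53) exposed 24 h to up to 46 uM compound at 32C, where p53 is wild-type in conformation. Viability read as ATP luminescence and normalised to DMSO and 100 uM tamoxifen. AC50 fitted with the Hill equation.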
Potency is the fitted concentration of half-maximal effect; tags give direction and shape of the fitted curve.

Row | SMILES | Potency | activity change, negative = cytotoxicity
1 | O=c1ccnc(S/C=C/c2ccccc2)[nH]1 | inconclusive: 10 µM [cytotoxic, partial curve] | 
2 | Cn1c(/C(C#N)=C(\O)CN2CCN(Cc3ccccc3)CC2)nc2ccccc21 | inactive | 
3 | Cc1ccccc1OCc1ccc(-c2nc(C#N)c(N3CCCCC3)o2)o1 | inconclusive: 5.62 µM [cytotoxic, single point] | 
4 | CCCCNC(=O)c1cnn2c(C)c(Cc3c(C)cc(C)cc3C)c(C)nc12 | inconclusive: 25.1 µM [cytotoxic, single point] | 
5 | CCNc1ncc2nc(-c3cc(F)cc(F)c3)c(=O)n(C[C@H]3CCCO3)c2n1 | inactive | 
6 | C=CCNC(=O)COc1ccc(Br)cc1Cl | inconclusive: 25.1 µM [cytotoxic, partial curve] | 
7 | CCc1nn(CC(=O)NCCc2ccc(OC)cc2OC)c(=O)c2cc3c(OC)cccc3n12 | inactive | 
8 | O=c1c2cc3ccccc3n2cnn1Cc1ccccc1F | inconclusive: 35.5 µM [cytotoxic, partial curve] | 
9 | Cc1c(C(=O)NCCc2ccccc2)oc2ccc(S(=O)(=O)N3CCC4(CC3)OCCO4)cc12 | inconclusive: 0.316 µM [cytotoxic, full curve] | 
10 | O[C@@H](C1=C/C(=C\c2ccncc2)c2ccccc21)c1ccncc1 |  | inactive: -8.32% [at 9.22 µM]
11 | COC(=O)CN(C#N)c1nc(NC(C)C)nc(OC)n1 | inconclusive: 10 µM [cytotoxic, partial curve, poor fit] | 
12 | CCN(CC)CCNC(=O)c1ccc(Cn2c(SCc3ccccc3)nc3cccnc32)cc1 | inconclusive: 11.2 µM [cytotoxic, partial curve, poor fit] | 
13 | COc1ncc2ncc(=O)n(Cc3ccc(F)cc3)c2n1 | inactive | 
14 | O=C(NCCc1ccccc1Cl)c1ccc(Cn2c(=O)c3cccn3c3cccnc32)cc1 | active: 10 µM | 
15 | COc1ccc(C2C(C(=O)Nc3cc(C)on3)c3ccccc3C(=O)N2C)cc1 (stereo not drawn) | inactive | 
16 | CCCC(=O)N1c2ccc(-c3csc(N)n3)cc2CC1C (stereo not drawn) | inconclusive: 12.6 µM [cytotoxic, partial curve] | 
17 | CCC(=O)N1c2ccccc2CC1C(=O)NCCc1ccccc1C (stereo not drawn) | inactive | 
18 | O=C(/C=C/c1ccc(O)cc1)c1cccs1 | active: 31.6 µM | 
19 | Cc1ccc2c(c1)-c1cc(C)nn1C(c1sccc1C)N2 (stereo not drawn) | inconclusive: 31.6 µM [cytotoxic, single point] | 
20 | CC(C)(C)C(=O)/C(=C\c1ccc([N+](=O)[O-])cc1)n1cncn1 | inconclusive: 35.5 µM [cytotoxic, single point] | 
21 | CCc1nc(-c2cc3ccc(C)cc3[nH]c2=O)no1 | inconclusive: 12.6 µM [cytotoxic, single point] | 
22 | COc1cccc(CSc2nc3cc(C(=O)NC4CCCC4)ccc3c(=O)n2Cc2ccccc2)c1 | inactive | 
23 | Cc1nn(-c2ccc(F)cc2)c(Cl)c1/C=N/NC(=O)c1cccs1 | inconclusive: 0.0089 µM [cytotoxic, full curve, poor fit] | 
24 | c1cncc(-c2nc(-c3ccc4c(c3)OCO4)cs2)c1 | inconclusive: 12.6 µM [cytotoxic, partial curve] | 
25 | CC1(COc2ccc(C[C@H]3SC(=O)NC3=O)cc2)CCCCC1 | inconclusive: 31.6 µM [cytotoxic, single point] | 

Row | SMILES | Potency | activity change, negative = cytotoxicity
26 | CCCC(=O)Nc1ccc(-c2nc3cc(C)ccc3o2)cc1 | inconclusive: 12.6 µM [cytotoxic, partial curve] | 
27 | COc1ccc(CNC(=O)c2ccc(CS(=O)(=O)c3ccccc3OC)o2)cc1 | inconclusive: 0.0063 µM [cytotoxic, full curve, poor fit] | 
28 | CCN(CC)c1ccc(NC(=O)c2cccc(C)c2OC)c(C)c1 | inactive | 
29 | O=S(=O)(Nc1cccc(-c2ccc(N3CCCCCC3)nn2)c1)c1cccc(F)c1 | inconclusive: 12.6 µM [cytotoxic, partial curve] | 
30 | CCCC(c1nnnn1Cc1ccc(F)cc1)N1CCN(C2CCCCC2)CC1 (stereo not drawn) | inconclusive: 12.6 µM [cytotoxic, partial curve] | 
31 | CSc1cccc(-n2c(C)cc(C(N)=O)c2C)c1 | inactive | 
32 | CCCc1cc(C(=O)Nc2nccs2)cs1 | inconclusive: 12.6 µM [cytotoxic, partial curve] | 
33 | COc1ccc(-c2cc(O)cc(O)c2)cc1 | inconclusive: 31.6 µM [cytotoxic, single point] | 
34 | CC(C)(C)OC(=O)N1CCC(c2c(C(=O)NCCN3CCC(Cc4ccccc4)CC3)cnn2-c2ccc(F)cc2)CC1 | inconclusive: 31.6 µM [cytotoxic, single point] | 
35 | Cc1ccc2nc(-c3ccccc3)cn2c1 | active: 0.501 µM | 
36 | CCOc1cccc2c1OC(c1cc(OC)c(OC)c(OC)c1)N1N=C(c3ccc(C)o3)CC21 (stereo not drawn) | active: 11.2 µM | 
37 | COc1cc2c(cc1NC(=O)COC(=O)/C=C/c1ccccc1)oc1ccccc12 | inconclusive: 0.0089 µM [cytotoxic, full curve, poor fit] | 
38 | Cc1ccc(C)c(CN2C(=O)c3ccccc3S(=O)(=O)c3ccc(C(=O)N4CCCCC4)cc32)c1 | inactive | 
39 | COc1ccc(OC)c(NC(=O)c2cnn(-c3ccc(C)cc3)c2C2CCNCC2)c1 | inactive | 
40 | COc1ccc(NC(=O)/C=C\c2ccc(Cl)cc2)cc1 | inconclusive: 12.6 µM [cytotoxic, partial curve] | 
41 | CCOC(=O)c1c(NC(=O)c2cccs2)sc(C)c1CC | inactive | 
42 | Cc1cc(C(=O)NCc2ccc(Cl)cc2)c2c(C)nn(-c3ccccc3)c2n1 | inconclusive: 0.0063 µM [cytotoxic, full curve, poor fit] | 
43 | CCc1cccc2nc3c(c([Si](C)(C)C)c12)Cn1c-3cccc1=O | inactive | 
44 | O=C(NCC(c1cccs1)N1CCOCC1)c1ccc(Cl)c([N+](=O)[O-])c1 (stereo not drawn) | inconclusive: 0.0112 µM [cytotoxic, full curve, poor fit] | 
45 | O=C(c1cc(NC(=O)C23CC4CC(CC(C4)C2)C3)cc(NC(=O)C23CC4CC(CC(C4)C2)C3)c1)N1CCCCC1 | inconclusive: 3.55 µM [cytotoxic, full curve] | 
46 | c1ccc(-c2cccc(N3CC[C@@]4(CCCNC4)C3)c2)cc1 | inconclusive: 10 µM [cytotoxic, single point] | 
47 | CCOc1ccc(CCNC(=O)CCc2c(C)nc3cc(-c4ccccc4OC)nn3c2C)cc1 | inactive | 
48 | COc1ccc(C)cc1-n1nnnc1SCc1cn2ccsc2n1 | inactive | 
49 | COc1ccc(CNCCC(c2ccccc2)c2ccc3c(c2)OCO3)cc1 (stereo not drawn) | inconclusive: 31.6 µM [cytotoxic, single point] | 
50 | Cc1c(Cl)cccc1NC(=O)Nc1nnc(N(C)Cc2ccccc2)s1 | inactive | 

Row | SMILES | Potency | activity change, negative = cytotoxicity
51 | COC(=O)C(C)n1nnc2sc(-c3ccccc3)cc2c1=O (stereo not drawn) | inconclusive: 10 µM [cytotoxic, partial curve] | 
52 | CCCc1c(-c2ccc(O)cc2)nn(-c2ccc(O)cc2)c1-c1ccc(O)cc1 | inconclusive: 31.6 µM [cytotoxic, single point] | 
53 | CSc1ncnc2c1ncn2C1OC(CO)C(O)C1O (stereo not drawn) | inconclusive: 1.58 µM [cytotoxic, full curve] | 
54 | CCC(C)NC(=O)c1cccc(NC(=O)c2nsc3ccccc23)c1 (stereo not drawn) | inconclusive: 31.6 µM [cytotoxic, single point] | 
55 | c1ccc2c(c1)oc1c(NCCN3CCOCC3)ncnc12 | inactive | 
56 | N#CC1=C(SCC(=O)NC2CC2)NC(=O)C(C#N)C12CCCCC2 (stereo not drawn) | inactive | 
57 | CCc1ccc(NC(=O)CSc2nc3c(sc4ccccc43)c(=O)n2CCCOC(C)C)cc1 | inactive | 
58 | COc1ccc(-c2nc3ccc(NS(=O)(=O)c4ccc(Cl)cc4)cc3o2)cc1 | inconclusive: 20 µM [cytotoxic, single point] | 
59 | COC(=O)[C@@H]1[C@@H]2C[C@H]3c4[nH]c5ccccc5c4CCN3C[C@@H]2CC[C@@H]1O | inactive | 
60 | CCOc1ccccc1NC(=O)Cc1noc2ccc(C)cc12 | inactive | 
61 | COC(=O)c1ccc(C(NC(=O)OCc2ccccc2)/C(C)=C/[C@@H](C)C(=O)N2CCN(C)CC2)cc1 (stereo partly drawn) | inactive | 
62 | Oc1ccc(/C=C/c2cc(O)cc(O)c2)cc1 | active: 10 µM | 
63 | COc1cccc(-c2ccc3ncnc(NCc4cccnc4)c3c2)c1 | inactive | 
64 | Cc1ccc(NS(=O)(=O)c2ccc3c(c2)c(=O)n(C)c(=O)n3C)cc1F | inconclusive: 12.6 µM [cytotoxic, partial curve] | 
65 | CC(C)COc1ccc(C(=O)NCc2ccco2)cc1 | inactive | 
66 | CC(C)c1ccc(Nc2c(-c3ccccc3O)nc3cnccn23)cc1 | inconclusive: 35.5 µM [cytotoxic, single point] | 
67 | Cn1c(Oc2ccc(F)cc2)nc2c1c(=O)n(Cc1ccccc1Cl)c(=O)n2C | inconclusive: 31.6 µM [cytotoxic, single point] | 
68 | Cc1ccc(-n2c(SCC(=O)Nc3cccc(Cl)c3)nc3n[nH]c(C)c3c2=N)cc1 | inconclusive: 31.6 µM [cytotoxic, single point] | 
69 | Cc1ccc(Cl)cc1N1CCN(CCNC(=O)Nc2ccc(Cl)cc2)CC1 | inconclusive: 31.6 µM [cytotoxic, single point] | 
70 | CCOc1ccc(OCc2cccc(C(=O)O)c2)cc1 | active: 2.51 µM | 
71 | CCOC(=O)C1CCC(CN(Cc2c(Cl)cccc2Cl)S(=O)(=O)c2ccc(F)cc2)CC1 (stereo not drawn) | inconclusive: 17.8 µM [cytotoxic, partial curve, poor fit] | 
72 | CC(=O)N=C(N)Sc1nc2ccccc2[nH]1 | inactive | 
73 | CCOC(=O)N/C(N)=N/c1nc2ccccc2s1 | inconclusive: 10 µM [cytotoxic, partial curve] | 
